About 50,000 (12%) of roughly 420,000 compounds were called active. The inconclusive results got no clear call from the source; some entries with a clear call stand among them for comparison. Calls follow the shape of the dose curve; as a rule, active = well fitted inhibition curve with a large enough effect; inconclusive = small, poorly fitted or top-dose-only effect; inactive = flat fitted curve, though single readings scatter. Potencies of inconclusive entries are left out as doubtful fits.
test: qHTS for Inhibitors of human tyrosyl-DNA phosphodiesterase 1 (TDP1): qHTS in cells in presence of CPT; settings: chicken DT40 Tdp1-/-;hTDP1 cells + 20 nM CPT, ATP luminescence, 48 h; activity change, negative = growth inhibition: at 46.2 µM (top of the series) unless noted; also: nearly all actives have a fitted effect of over 55% in size
Method in brief: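 Chicken DT40 Tdp1-/- cells complemented with human TDP1, 400 cells/well, exposed to compounds plus 20 nM camptothecin for at least 48 h at 37 C; viability read as ATP content by CellTiter-Glo luminescence.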
% is scaled to controls: 0 for no effect and ±100 for the full control effect; potency is read from the fitted curve at half-maximal effect; tags tell the direction and shape of the fitted curve.

Compound	Potency	activity change, negative = growth inhibition
Cc1sc2ncnc(N3CCC(C(=O)Nc4nc5ccc(Cl)cc5s4)CC3)c2c1C	active: 8.2 µM	–
O=C(Nc1nnc(-c2ccc(F)cc2)o1)c1ccc(S(=O)(=O)N2CCOCC2)cc1	active: 3.26 µM	–
CCn1cc(C(=O)NCC(=O)NC(C)(C)CO)c(=O)c2cc3c(cc21)OCO3	–	inactive: 14.7%
CC(C)CN(CC(C)C)CC(O)COc1ccccc1Br (stereo not drawn)	inconclusive [inhibitor, single point]	–
C/C=C(\C)C(=O)NCCN1C2=NC[C@H](Cc3ccc(O)cc3)N2C[C@@H]1Cc1ccc(OC)cc1	inconclusive [inhibitor, partial curve, poor fit]	–
COc1ccc(-c2noc(CSc3nnc(-c4ccncc4)n3-c3ccc(OC)cc3)n2)cc1	active: 23.1 µM	–
C=C1[C@@H](O)[C@H](Cc2ccccc2)N(Cc2ccccc2Br)S1(=O)=O	active: 20.6 µM	–
CCCCc1ccc(NC(=O)c2ccc(NS(C)(=O)=O)cc2)cc1	inconclusive [inhibitor, single point]	–
Cc1ccc(S(=O)(=O)N2C[C@H]3n4c(=O)ccc(=O)n4C[C@H](OC(=O)NCc4ccco4)[C@@]3(O)C2)cc1	inconclusive [inhibitor, single point]	–
CCOC(=O)C1=C(COC(=O)Cc2c(F)cccc2Cl)NC(=O)NC1C (stereo not drawn)	–	inactive: -17.7%
CN(C)C(=O)c1ccc(NC(=O)c2cc(-c3ccco3)nc3ccccc23)cc1	inconclusive [inhibitor, single point]	–
O=C(NCc1ccc(Cl)cc1)C1CCC(CNc2c(N3CCOCC3)c(=O)c2=O)CC1 (stereo not drawn)	–	inconclusive: -32.8% [inhibitor]
CCOC(=O)N1CCN(Cc2cc(Cl)c3cccnc3c2O)CC1	active: 0.82 µM	–
CC1=CC(=O)N(c2cccc3c(N4C(=O)C=C(C)C4=O)cccc23)C1=O	active: 1.84 µM	–
O=C(COc1cccc(Cl)c1)Nc1ccccc1N1CCCCC1	–	inactive: -26.3%
Cc1nc(NC(=O)c2ccccc2)sc1C1(C)CC(c2c(Cl)cccc2Cl)=NO1 (stereo not drawn)	active: 23.1 µM	–
C(=N\Nc1nccc(-c2cccnc2)n1)/c1ccccc1	active: 0.0326 µM	–
O=C(NC1CC(=O)N(c2ccc(F)cc2)C1)C(c1ccccc1)c1ccccc1 (stereo not drawn)	inconclusive [inhibitor, single point]	–
COc1ccc(/C=C2/Sc3ccc(C(=O)N4CCOCC4)cc3NC2=O)cc1OC	inconclusive [inhibitor, single point]	–
COC(=O)[C@]1(C)N[C@H](CN(C)C(=O)C2CCCCC2)[C@@H]2C(=O)N(C)C(=O)[C@@H]21	–	inactive: 4.43%
CCCCCCCCCCCCCCCC[n+]1ccc(/C=N/O)cc1	active: 1.64 µM	–
COc1ccc(NC(=O)C(=O)NCCc2csc3nc(-c4ccccc4C)nn23)cc1	inconclusive [inhibitor, single point]	–
CCOc1ccc2c(c1)OC(c1ccc(C)cc1)(C(F)(F)F)NC2=O (stereo not drawn)	active: 1.46 µM	–
COc1ccc(C(=O)NNC(=O)CSc2nc3c([nH]2)c(=O)n(C)c(=O)n3C)cc1	–	inactive: 4.24%

Compound	Potency	activity change, negative = growth inhibition
CCOc1ccc(-n2nc3ccc(NC(=O)COc4ccccc4C)cc3n2)cc1	inconclusive [inhibitor, single point]	–
CCSc1nnc(NC(=O)C2CCN(C(=O)c3ccc(F)cc3)CC2)s1	–	inactive: -28.1%
O=C(C1CC1)N1CCc2cc(Br)cc(S(=O)(=O)Nc3ccc(C(F)(F)F)cc3)c21	active: 18.4 µM	–
CCCC[n+]1c(C)ccc2ccccc21	inconclusive [inhibitor, single point]	–
S=c1nc(-c2ccc(Br)cc2)oc2c1CCCC2	active: 20.6 µM	–
COc1ccc(CN2CC[C@H]3C=CC[C@@H](C(=O)Nc4ccc(Cl)cc4Cl)[C@H]3C2=O)cc1OC	inconclusive [inhibitor, single point]	–
COCCNC(=O)c1ccc(NC(=O)N2CCCCc3ccccc32)cc1	–	inactive: -5.27%
Cc1cc(NC(=O)CSCC(=O)N2CCN(c3cccc(C)c3C)CC2)no1	inconclusive [inhibitor, single point]	–
O=C(c1ccc2c3c(cccc13)CC2)C1CCCN(Cc2cccnc2)C1 (stereo not drawn)	–	inactive: -20.5%
C=C(c1ccc(O)cc1)c1ccc(O)cc1	–	inactive: -6.26%
O=C(Nc1nc2ccccc2s1)c1ccccc1	inconclusive [inhibitor, single point]	–
COc1cc(/C=N/NC(=O)c2ccc(CSc3nc4ccccc4[nH]3)cc2)cc(OC)c1OC	active: 18.4 µM	–
CC[C@@]1(C(=O)OC)N[C@H](CN(C)S(=O)(=O)c2ccccc2)[C@@H]2C(=O)N(Cc3ccccc3)C(=O)[C@@H]21	–	inactive: 7.98%
O=C1CCC(=O)N1CN(Cc1ccco1)CN1C(=O)CCC1=O	–	inactive: -43.5%
Cc1cccc(Cc2c(C)nc3c(C(=O)N4CCN(Cc5ccc6c(c5)OCO6)CC4)cnn3c2C)c1	inconclusive [inhibitor, single point]	–
O=c1c2cc3c(=O)n(-c4ccccc4O)c(=O)c3cc2c(=O)n1-c1ccccc1O	–	inactive: 11.1%
COc1ccc(S(=O)(=O)N(CCc2ccccc2)CC(=O)NCc2ccc(C)cc2)cc1	inconclusive [inhibitor, partial curve]	–
COc1ccc(/C=C(\C#N)C(=O)ONC2=NCCCCC2)cc1	active: 16.4 µM	–
N#CCCN(C(=O)CN1c2cccc3cccc(c23)S1(=O)=O)c1ccccc1	–	inactive: -8.76%
Cc1ccc(NC(=O)COC(=O)CCc2nc3ccccc3c(=O)[nH]2)c(Br)c1	inconclusive [inhibitor, full curve, poor fit]	–
COc1cccc(/C=N/NC(=O)c2[nH]nc3c2CCc2ccccc2-3)c1O	active: 2.31 µM	–
O=c1cnc2cnc(Oc3cccc(Cl)c3)nc2n1C[C@H]1CCCO1	inconclusive [inhibitor, single point]	–
Fc1ccc2cnc(-c3ccccc3)c(-c3cccc(C(F)(F)F)c3)c2c1	active: 16.4 µM	–
CCn1cc(/C=C(\NC(=O)c2ccc(OC)cc2)C(=O)N2CCN(C)CC2)c2ccccc21	–	inactive: -27.2%
